According to PubChem BioAssay AID1347417 (National Center for Advancing Translational Sciences (NCATS), 2020):
Values joined by “and” are separate entries in the source; they are usually repeats but may differ in a detail not shown here. Equal entries are not always repeated. Among all 120,000 compounds or so, about 5,300 (4.4%) were called active. Inconclusive results, whose numbers are uncertain, are shown with a selection of clear calls. Calls come from the whole dose curve; as a rule, active = well fitted inhibition curve with a large enough effect; inconclusive = small, poorly fitted or top-dose-only effect; inactive = no such curve, though single readings can be large or run the other way. Potencies beside an inconclusive call are fits to weak or partial responses and may not hold up.

test: qHTS Primary assay for Inhibitors of Plasmodium falciparum Dd2 growth in vitro; note: nearly all actives have a fitted effect of over 65% in size;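 for activity, negative = inhibition: plate controls were DMSO vehicle for no effect and reference drug for full effect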; conditions: P. falciparum Dd2 growth, SYBR Green, 72 h; activity, negative = inhibition: at 28.9 µM (top of the series) unless noted; series mostly up to 28.9 µM
Procedure, shortened: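 Infected erythrocytes (Dd2, 0.3% parasitemia, 2.5% hematocrit final) are added to compound in RPMI-1640/Albumax II medium, grown 72 h at 37C in low oxygen, then lysed with saponin/Triton-X containing SYBR Green and read by fluorescence.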
Potency is the fitted concentration of half-maximal effect; tags give direction and shape of the fitted curve.

SMILES | Potency | activity, negative = inhibition | outcome
CCc1ccc([S+](=O)([O-])c2nnn3c2nc(NCCCOC(C)C)c2ccccc23)cc1 | inconclusive: 11.2 µM [inhibitor, single point] |  | 
O=C1NC(=NC2CCCCC2)C2(CCN(Cc3ccsc3)CC2)N1c1cc(F)cc(F)c1 | inconclusive: 11.2 µM [inhibitor, single point] |  | 
O=C1COc2ccc(N3CCOCC3)nc2CN1CCOc1ccccc1 | inconclusive: 5.62 µM [inhibitor, partial curve, poor fit] |  | 
COc1cc2c(cc1OC)C(COc1ccc3c(C)cc(=O)oc3c1)N(C(=O)c1ccc(C)c(C)c1)CC2 (stereo not given) | active: 5.01 µM |  | 
COC(=O)[C@H](Cc1ccc(OC)cc1)NC(=O)[C@H]1CN(S(=O)(=O)c2ccccc2)CCN1C(=O)c1cccs1 | inconclusive: 1.78 µM [inhibitor, partial curve, poor fit] |  | 
CC(C)C(=O)Nc1ccc(C2(C(=O)N3CCCC3)CCCCC2)cc1 | inconclusive: 10 µM [inhibitor, single point] |  | 
O=C(CCC1CCCN(Cc2cccn2-c2nccs2)C1)Nc1ccccc1F (stereo not given) | active: 7.08 µM |  | 
CCOc1ccccc1C1CC(=O)NC(C)=C1C(=O)OCc1ccc(C)cc1 (stereo not given) | inconclusive: 17.8 µM [inhibitor, single point] |  | 
Cc1ccccc1-c1noc(CCC(=O)N[C@H]2CC[C@H]2N)n1 | inconclusive: 10 µM [inhibitor, single point] |  | 
COc1cccc(C2CCCCN2Cc2nc(CCc3ccccc3)no2)c1 (stereo not given) | inconclusive: 22.4 µM [inhibitor, partial curve, poor fit] |  | 
CC(=O)N1CCn2cc(C(=O)N3CCOCC3)nc2C1 |  | inactive: 46.7% [at 44.1 µM] | 
O=C1CC(c2ccccc2)N(C(=O)CC2CCCC2)CCCCCCN1 (stereo not given) | inconclusive: 17.8 µM [inhibitor, single point] |  | 
CCOc1ccc(-c2nc(C3CC(=O)N(c4ccc(F)cc4)C3)no2)cc1OCC (stereo not given) |  | inactive: -4.97% | 
CC(C)(C)C1CCc2[nH]nc(C(=O)N3CCc4nn(CC#N)c(=O)n4CC3)c2C1 (stereo not given) | inconclusive: 4.47 µM [inhibitor, partial curve, poor fit] |  | 
COc1ccc(C(=O)NCCn2cccc2-c2nc(-c3ccc4c(c3)OCO4)no2)cc1 |  | inactive: -8.44% | 
O=[S+]([O-])(c1cccc(C(F)(F)F)c1)N1CCn2c(nnc2-c2ccncc2)C1 |  | inactive: 0.653% | 
Cc1nnc2n1CCC(N(C)C(=O)CC1=CCCCC1)CC2 (stereo not given) | inconclusive: 4.47 µM [inhibitor, partial curve, poor fit] |  | 
COc1ccccc1CNC(=O)Cn1c(-c2cccs2)cc2cc(F)ccc21 | inconclusive: 8.91 µM [inhibitor, single point] |  | 
O=C(CCCN1C(=O)COc2ccc(C(=O)COc3cccc(Cl)c3)cc21)NCc1ccccc1 |  | inactive: -5.08% | 
O=C(C1CN(S(=O)(=O)c2ccccc2)CC12CCCCC2)N1CCOCC1 (stereo not given) |  | inactive: 6.86% | 
CCc1cccc(C)c1Nc1c(-c2cccc(O)c2)nc2cnccn12 | active: 8.91 µM |  | 
Cc1nn2c(c1-c1ccccc1-c1ccccc1)N(C(=O)C1CCOCC1)CCC2 | inconclusive: 35.5 µM [inhibitor, single point] |  | 
COc1ccc(-c2noc([C@@H]3CCCN3C(=O)c3ccc(C(C)(C)C)cc3)n2)cc1OC |  |  | inactive
COc1ccc(C(=O)N2CCC(c3ccncc3)CC2)cc1OC |  | inconclusive: -59.8% [inhibitor] [at 0.594 µM] | 

SMILES | Potency | activity, negative = inhibition | outcome
CC(C)(C)C(=O)N1CCC2(CC1)CCN(Cc1cccs1)c1ccccc1O2 | active: 10 µM |  | 
CN1CC(CO)C2(CCN(Cc3ccc(Cl)cc3)CC2)C1 (stereo not given) | inconclusive: 12.6 µM [inhibitor, single point] |  | 
Cc1ccc(CN2CCc3nc(N4CCN(C)CC4)ncc3C2)cc1 |  |  | inactive
CC1=C[C@@H](CN2CCN(CCO)CC2)[C@H](C(C)C)C[C@H]1Cc1nnc(-c2ccncc2)o1 | inconclusive: 15.8 µM [inhibitor, partial curve, poor fit] |  | 
CCOc1nccnc1NC1CCN(C(=O)NC)CC1 |  | inactive: 53.3% [at 5.79 µM] | 
C=CCN1CC2(CCC1=O)CCN(C(=O)C1CCc3ccccc31)CC2 (stereo not given) |  | inactive: -13.4% | 
CCOc1ccc(CN(CCc2ccc3c(c2)OCO3)Cc2cc(OC)ccc2O)cc1 | active: 0.708 µM |  | 
CN(CC1CCOC1)S(=O)(=O)c1ccccc1Br (stereo not given) |  |  | inactive [at 5.79 µM]
CCCN1Cc2ccccc2NC(=O)C12CCNC2 (stereo not given) | inconclusive: 7.08 µM [inhibitor, partial curve, poor fit] |  | 
CN(Cc1ccccc1C(F)(F)F)C(=O)Cc1cccc(Cl)c1 | inconclusive: 25.1 µM [inhibitor, single point] |  | 
O=C(Nc1ccc2oc(-c3cccnc3)nc2c1)c1ccc(-c2ccccc2)o1 | inconclusive: 10 µM [inhibitor, single point] |  | 
N#Cc1cccc(CN[C@@H]2CO[C@H](CNC(=O)C3CC3)[C@H]2O)c1 |  | inactive: 6.58% [at 44.1 µM] | 
CCOc1ccc(NC(=O)N2CCc3c(c4ccccc4n3C)C2)cc1 |  |  | inactive
C[S+](=O)([O-])N1Cc2ccccc2CC2(CCCCN2CC2CCCC2)C1 (stereo not given) | inconclusive: 10 µM [inhibitor, partial curve, poor fit] |  | 
N[C@H](C(=O)N1CCC2(CC1)Nc1ccccc1NC2=O)c1ccccc1 |  | inactive: -0.235% | 
O=c1[nH]c(C2CCCN(Cc3cccc(-c4ccsc4)c3)C2)nc2ccc(F)cc12 (stereo not given) | inconclusive: 11.2 µM [inhibitor, single point] and inconclusive: 8.91 µM [inhibitor, partial curve, poor fit] |  | 
CCCCCC(=O)N1CC[C@@H](CC(=O)NCc2ccc(F)cc2)[C@@H](CC)C1 |  | inactive: -2.98% [at 44.1 µM] | 
NC1(C(=O)N2CCCC(CCc3ccccc3F)C2)CCC1 (stereo not given) | inconclusive: 4.47 µM [inhibitor, partial curve] |  | 
COC(=O)[C@H](Cc1ccc(OC)cc1)NC(=O)[C@H]1CN(S(=O)(=O)c2ccccc2)CCN1C(=O)NC1CCCCC1 | active: 11.2 µM |  | 
Cc1c(F)cccc1NC(=O)N1CCCC(c2noc(COc3ccccc3F)n2)C1 (stereo not given) |  |  | inactive
COc1ccc(F)c(-c2nc(CN3CCN4C(=O)CNC(=O)C4C3)c(C)o2)c1 (stereo not given) |  | inactive: 6.16% | 
COC1CN(C2CCN(C(=O)c3cnccn3)CC2)C12CCOCC2 (stereo not given) |  | inactive: -4.89% | 
CC(C)N1C[C@@H](F)[C@@H](OCc2nc3ccc(F)cc3[nH]2)C1 | inconclusive: 12.6 µM [inhibitor, partial curve, poor fit] |  | 
CCC1CCCCN1C(=O)CSc1nc2c([nH]c3ccccc32)c(=O)n1-c1cccc(OC)c1 (stereo not given) |  | inactive: -10.5% | 

SMILES | Potency | activity, negative = inhibition | outcome
Cc1cc(S(=O)(=O)N2CC(C(=O)NC3CCCCC3)C3(CCOCC3)C2)ccc1F (stereo not given) | inconclusive: 17.8 µM [inhibitor, single point] |  | 
Cc1ccc(CN2CCC3(CC2)C(=O)NCN3Cc2ccc(Cl)cc2)cc1 | inconclusive: 20 µM [inhibitor, single point] |  | 
CCOc1ccc(NC(=O)Cn2cc(C(=O)c3ccc(C)c(C)c3)c(=O)c3cc(OC)c(OC)cc32)cc1 |  | inactive: 11.7% | 
Cc1cc2cccc(C(=O)N[C@H]3CCOC[C@H]3C3CCOCC3)c2o1 |  | inactive: 8.23% | 
CCOC(=O)c1ccc(NC(=O)c2csc3c2CCCCC3)cc1 | inconclusive: 10 µM [inhibitor, single point] |  | 
O=C(Cc1cccc(F)c1)N1CCC(N2CC3CC(C2)[C@H]2CCCC(=O)N2C3)CC1 (stereo not given in full) |  | inactive: -2.58% | 
Cc1ccc(C(=O)NC(C(=O)N2CCCC2)C2CCN(C(=O)CCc3ccccc3)CC2)cc1 (stereo not given) |  |  | inactive
CCCC(=O)C1=C(c2ccc(C)c(C)c2)N(C(=O)CCC)n2c(CC)nnc2S1 | inconclusive: 1.41 µM [inhibitor, single point] |  | 
CCOC(=O)c1cn(C2CN(C(=O)c3ccccc3Br)C2)nn1 | inconclusive: 11.2 µM [inhibitor, single point] |  | 
COc1ccc2c(c1)-c1nc(NC(=O)c3ccc(C)cc3)sc1CC2 | active: 11.2 µM |  | 
Cc1ccc(C#N)c(N2CCCC(c3nccn3CC3CCC3)C2)n1 (stereo not given) |  |  | inactive
CC(C)C[C@@H]1N[C@H](C(=O)NC(C)C)Cc2cn(Cc3ccccn3)c3cccc1c23 | inconclusive: 10 µM [inhibitor, partial curve] |  | 
COc1ccc(-c2ccc3ncc(Nc4cccc(N[S+](C)(=O)[O-])c4)n3n2)cc1OC | inconclusive: 3.98 µM [inhibitor, single point] |  | 
Cc1ccsc1C(=O)N1CCCn2cc(-c3ccccc3)nc21 | inconclusive: 20 µM [inhibitor, single point] |  | 
O=C1[C@@H]2C[C@@H](CN2Cc2ccc(Cl)cc2)Oc2ccccc2N1CC1CC1 | active: 12.6 µM |  | 
COc1ccc(-c2nnc3ccc(NCCc4ccccn4)nn23)nc1 | inconclusive: 31.6 µM [inhibitor, single point] |  | 
CN1CCCCC1C(=O)NCc1cccnc1Oc1cccc(C(F)(F)F)c1 (stereo not given) | inconclusive: 10 µM [inhibitor, single point] |  | 
CNC(=O)[C@@H]1C[C@H](Oc2cccnc2)CN1C(=O)C(C)C | inconclusive: 3.98 µM [inhibitor, single point] |  | 
COC(=O)COc1cccn2c(=O)c(-c3cc(C)n(-c4ccc(Cl)c(Cl)c4)n3)c(C)nc12 | inconclusive: 17.8 µM [inhibitor, single point] |  | 
COc1ccc(-c2noc([C@@H]3CCCN3C(=O)CCc3ccccc3)n2)cc1OC |  |  | inactive
COc1ccc(-c2nn(-c3ccccc3)cc2CN2CCC(F)CC2)c(F)c1 | active: 11.2 µM |  | 
Cc1cc(C(=O)N2CCOC[C@H](Oc3ccc(S(C)(=O)=O)cc3)C2)c(C(F)(F)F)o1 |  | inactive: -12.7% | 
